# Measurements published in a collection of fitness landscapes (doi:10.1016/j.celrep.2020.107928).
# Whole data set: some 81,000 sequences, median “one-hybrid fitness for binding NBS DNA” near -0.1, cut for the highest 2% near 0.36. This is one part of the list.
# B1: Caulobacter ParB omega fusion; a variant is named by its letters at X, in order, B8GW30 (parent)
# chain: MESVVVGEPGMSEGRRGLGRGLSALLGEVDAAPAQAPGEQLGGSREAPIEILQRNPDQPRRTFREEDLEDLSNSIREKGVLQPILVRPSPDTAGEYQIVAGERAWRAAQRAGLKTVPIMVRELDDLAVLEIGIIENVQRADLNVLEEALSYKVLMEKFERTQENIAQTIGKSXSHVANXMRLLXLPDEVQSYLVSGELTAXHARAIAAAADPVALAKQIIEGGLSVRETEALARKAPNLSAGKSKGGRPPRVKDTDTQALESDLSSVLGLDVSIDHRGSTGTLTITYATLEQLDDLCNRLTRGI
# Variants of: B1
# Assay: one-hybrid fitness for binding NBS DNA (the Noc-binding site; scaled: cognate 1, non-cognate 0); higher = stronger binding
# Conditions: with NBS DNA site
# How it was run: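 Bacterial one-hybrid selection in E. coli USO rpoZ- hisB- pyrF- with a HIS3 reporter carrying the site 19 bp from the promoter, screening Caulobacter ParB libraries with four specificity codons randomised (NNS). Cells grew 48 hours at 37°C on M9-minus-histidine plus 0.1 mM IPTG and 5 mM 3-AT. Plasmids before and after selection were Illumina-sequenced, three replicate libraries pooled, and variants under 10 reads dropped. Fitness is the log change in variant-to-wild-type read ratio, rescaled to cognate 1, non-cognate 0.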
row,Variant,one-hybrid fitness for binding NBS DNA
1,GMCG,≤ 0.2
2,NFYV,≤ 0.2
3,RYLI,≤ 0.2
4,AFQM,≤ 0.2
5,HKSL,≤ 0.2
6,QGTE,≤ 0.2
7,HGNC,≤ 0.2
8,QMQV,≤ 0.2
9,ASFQ,≤ 0.2
10,RICN,≤ 0.2
11,NINA,≤ 0.2
12,NWQS,≤ 0.2
13,TTDR,≤ 0.2
14,QVYF,≤ 0.2
15,KRGS,0.353
16,CNTM,≤ 0.2
17,RTQF,≤ 0.2
18,RMVN,≤ 0.2
19,VTQS,≤ 0.2
20,VALP,≤ 0.2
21,PPCT,≤ 0.2
22,CVPD,≤ 0.2
23,RSWW,≤ 0.2
24,YMAC,≤ 0.2

row,Variant,one-hybrid fitness for binding NBS DNA
1,VYKR,≤ 0.2
2,MPGT,≤ 0.2
3,STTN,≤ 0.2
4,QTFI,≤ 0.2
5,MDSK,≤ 0.2
6,RNIM,≤ 0.2
7,SAHE,≤ 0.2
8,VSPC,≤ 0.2
9,FEVT,≤ 0.2
10,CTLT,≤ 0.2
11,RVYY,≤ 0.2
12,HYCS,≤ 0.2
13,EPHG,≤ 0.2
14,LYSL,≤ 0.2
15,LPAC,≤ 0.2
16,ELGG,≤ 0.2
17,PVTY,≤ 0.2
18,PGLC,≤ 0.2
19,LVDT,≤ 0.2
20,NECV,≤ 0.2
21,VMTC,≤ 0.2
22,QQGA,0.388
23,LYPK,≤ 0.2
24,AAEI,≤ 0.2

row,Variant,one-hybrid fitness for binding NBS DNA
1,HGTC,≤ 0.2
2,RQLI,≤ 0.2
3,RNWI,≤ 0.2
4,TRMT,0.256
5,QGKA,≤ 0.2
6,EYTP,≤ 0.2
7,AFTR,≤ 0.2
8,WAMS,≤ 0.2
9,LIHI,≤ 0.2
10,IQVG,≤ 0.2
11,TLMF,≤ 0.2
12,KRHM,≤ 0.2
13,GIAG,≤ 0.2
14,WVKS,≤ 0.2
15,HCPW,≤ 0.2
16,LRKH,≤ 0.2
17,RELI,≤ 0.2
18,DYHN,≤ 0.2
19,RNTV,≤ 0.2
20,KPQC,≤ 0.2
21,DSTK,≤ 0.2
22,HLVL,≤ 0.2
23,ANLG,≤ 0.2
24,SIYI,≤ 0.2

row,Variant,one-hybrid fitness for binding NBS DNA
1,PKYR,≤ 0.2
2,ANTL,≤ 0.2
3,QLSL,≤ 0.2
4,WYAT,≤ 0.2
5,CSHS,≤ 0.2
6,QSML,≤ 0.2
7,RWEN,≤ 0.2
8,EWAS,≤ 0.2
9,TLQR,≤ 0.2
10,LSKE,≤ 0.2
11,LTWE,≤ 0.2
12,RSEM,≤ 0.2
13,KMYC,≤ 0.2
14,AKVY,≤ 0.2
15,EGTV,≤ 0.2
16,QIYN,≤ 0.2
17,EIYC,≤ 0.2
18,GRAY,≤ 0.2
19,GELN,≤ 0.2
20,KPGV,≤ 0.2
21,GLEC,≤ 0.2
22,WLTK,≤ 0.2
23,IRSI,≤ 0.2
24,YSLM,≤ 0.2

row,Variant,one-hybrid fitness for binding NBS DNA
1,VKLA,≤ 0.2
2,TIVT,≤ 0.2
3,EEPA,≤ 0.2
4,VTVI,≤ 0.2
5,EDVN,≤ 0.2
6,NVSR,≤ 0.2
7,PYTQ,≤ 0.2
8,PART,≤ 0.2
9,TTPP,≤ 0.2
10,KRFY,≤ 0.2
11,IEGG,≤ 0.2
12,PQHW,≤ 0.2
13,THRD,≤ 0.2
14,SSTM,≤ 0.2
15,ILPR,≤ 0.2
16,QYSG,≤ 0.2
17,YRTN,≤ 0.2
18,TRPQ,≤ 0.2
19,KNPR,≤ 0.2
20,GTLS,≤ 0.2
21,QQII,≤ 0.2
22,QKAH,≤ 0.2
23,KTKG,≤ 0.2
24,KSEI,≤ 0.2

row,Variant,one-hybrid fitness for binding NBS DNA
1,PLLR,≤ 0.2
2,LYPL,≤ 0.2
3,QQQP,≤ 0.2
4,NQDS,≤ 0.2
5,RRRV,0.655
6,RTDF,≤ 0.2
7,SSNA,≤ 0.2
8,KRAM,≤ 0.2
9,RYWT,0.281
10,GQQR,≤ 0.2
11,YFLW,≤ 0.2
12,SELM,≤ 0.2
13,HTRQ,≤ 0.2
14,DQLF,≤ 0.2
15,CITL,≤ 0.2
16,RYAL,≤ 0.2
17,ARRR,0.31
18,QTPD,≤ 0.2
19,QMLW,≤ 0.2
20,DCPC,≤ 0.2
21,RMFW,≤ 0.2
22,CHMG,≤ 0.2
23,MVRA,≤ 0.2
24,LRKI,≤ 0.2

row,Variant,one-hybrid fitness for binding NBS DNA
1,RRAW,≤ 0.2
2,KGGT,≤ 0.2
3,LASG,≤ 0.2
4,DYVS,≤ 0.2
5,KEEG,≤ 0.2
6,QHID,≤ 0.2
7,IMYS,≤ 0.2
8,ACKT,≤ 0.2
9,ITCL,≤ 0.2
10,APKA,≤ 0.2
11,QAAQ,≤ 0.2
12,SRLW,≤ 0.2
13,HTNN,≤ 0.2
14,NMRL,≤ 0.2
15,GSYR,≤ 0.2
16,TRKL,≤ 0.2
17,NPHR,≤ 0.2
18,VIKC,≤ 0.2
19,LWDG,≤ 0.2
20,RKPQ,≤ 0.2
21,YQIT,≤ 0.2
22,YFFS,≤ 0.2
23,HCNI,≤ 0.2
24,KSKA,≤ 0.2

row,Variant,one-hybrid fitness for binding NBS DNA
1,PMIG,≤ 0.2
2,PMYN,≤ 0.2
3,CTKR,0.263
4,IDST,≤ 0.2
5,RHCA,≤ 0.2
6,PPRD,≤ 0.2
7,AAFF,≤ 0.2
8,TISI,≤ 0.2
9,LRGG,≤ 0.2
10,RPAA,≤ 0.2
11,REWI,≤ 0.2
12,LMKS,≤ 0.2
13,RLFD,≤ 0.2
14,LWKG,≤ 0.2
15,TTFR,≤ 0.2
16,ISCL,≤ 0.2
17,KLFR,≤ 0.2
18,CTQS,≤ 0.2
19,EKQR,≤ 0.2
20,GSDF,≤ 0.2
21,TISW,≤ 0.2
22,NDNA,≤ 0.2
23,MEPR,≤ 0.2
24,ISTR,≤ 0.2

row,Variant,one-hybrid fitness for binding NBS DNA
1,RWAE,≤ 0.2
2,AIHS,≤ 0.2
3,SQSV,≤ 0.2
4,RKLK,≤ 0.2
5,AFIM,≤ 0.2
6,MPSK,≤ 0.2
7,MSLR,≤ 0.2
8,RNLT,≤ 0.2
9,LGDI,≤ 0.2
10,QFCA,≤ 0.2
11,ENVC,≤ 0.2
12,GDMV,≤ 0.2
13,ACHA,≤ 0.2
14,CAPL,≤ 0.2
15,ILRG,≤ 0.2
16,NIVN,≤ 0.2
17,IETV,≤ 0.2
18,TMMG,≤ 0.2
19,WYER,≤ 0.2
20,PKHH,≤ 0.2
21,LTWM,≤ 0.2
22,GKRC,≤ 0.2
23,RPIK,≤ 0.2
24,SYNN,≤ 0.2

row,Variant,one-hybrid fitness for binding NBS DNA
1,ANDT,≤ 0.2
2,TNYG,≤ 0.2
3,TRRC,≤ 0.2
4,MARC,≤ 0.2
5,NLDK,≤ 0.2
6,DHSS,≤ 0.2
7,WCTR,≤ 0.2
8,PAQP,≤ 0.2
9,WSDL,≤ 0.2
10,QQEC,≤ 0.2
11,DSQR,≤ 0.2
12,DPVI,≤ 0.2
13,DADG,≤ 0.2
14,KRCC,≤ 0.2
15,TYPT,≤ 0.2
16,TTKY,≤ 0.2
17,SVQW,≤ 0.2
18,FNEI,≤ 0.2
19,NYTG,≤ 0.2
20,YWSC,≤ 0.2
21,VPCR,≤ 0.2
22,DIVG,≤ 0.2
23,RLFP,≤ 0.2
24,RCWT,0.418

row,Variant,one-hybrid fitness for binding NBS DNA
1,HGYG,≤ 0.2
2,AAEV,≤ 0.2
3,KILA,≤ 0.2
4,QTWD,≤ 0.2
5,ADPL,≤ 0.2
6,DGWS,≤ 0.2
7,PLGT,≤ 0.2
8,LTAF,≤ 0.2
9,CHTY,≤ 0.2
10,FPTM,≤ 0.2
11,IPAF,≤ 0.2
12,ETRH,≤ 0.2
13,DNRM,≤ 0.2
14,QPLN,≤ 0.2
15,AQRR,0.217
16,NKAY,≤ 0.2
17,LPNP,≤ 0.2
18,EIKV,≤ 0.2
19,RHIN,≤ 0.2
20,ARPY,≤ 0.2
21,RFHW,≤ 0.2
22,RELC,≤ 0.2
23,RRWA,0.546
24,VSYS,≤ 0.2

row,Variant,one-hybrid fitness for binding NBS DNA
1,YQRC,≤ 0.2
2,DYIT,≤ 0.2
3,LLKM,≤ 0.2
4,SMER,≤ 0.2
5,NKDD,≤ 0.2
6,EADR,≤ 0.2
7,TGAF,≤ 0.2
8,HLAA,≤ 0.2
9,CSQL,≤ 0.2
10,SISS,≤ 0.2
11,GPQL,≤ 0.2
12,IGQT,≤ 0.2
13,YQMF,≤ 0.2
14,SSYS,≤ 0.2
15,KTIT,≤ 0.2
16,AGPD,≤ 0.2
17,EPWV,≤ 0.2
18,RTNS,0.534
19,PLFR,≤ 0.2
20,DSRN,≤ 0.2
21,PSPC,≤ 0.2
22,THGE,≤ 0.2
23,IWPT,≤ 0.2
24,MLQH,≤ 0.2

row,Variant,one-hybrid fitness for binding NBS DNA
1,PCSR,≤ 0.2
2,MLLS,≤ 0.2
3,RSHQ,≤ 0.2
4,CRNC,≤ 0.2
5,TMGT,≤ 0.2
6,KKSG,≤ 0.2
7,SERC,≤ 0.2
8,YIDG,≤ 0.2
9,VMDI,≤ 0.2
10,QVMW,≤ 0.2
11,HTLK,≤ 0.2
12,YTWC,≤ 0.2
13,VHTT,≤ 0.2
14,QSIL,≤ 0.2
15,RASG,≤ 0.2
16,SHGW,≤ 0.2
17,YSPG,≤ 0.2
18,PRNN,≤ 0.2
